# Data from the supplement of paper PMC8728848.
# This is one part of the list.
# B1: PX14367B-bvu-516-23-516 (Bacteroides vulgatus) (protein)
# chain: LDTIPTTYVDAGSVFGKTGDAEKVLNGGWNYLMETFNSYANPGYGAMLRANDAMGSDVVLNSKYGFRTHNEFSAIYGKGGTNTLSWLLAYRVINDCNGVLDNIDAAEGTQADRNRIKGQALALRGFLYLHLASCYSFAIDKDPDAVCAPIYTQSTDETIAAEGKPASSVSEVYAQSINDLEEALELIPETYVRDAKHKIDNEVVLGILSRACLYARQWEKAKTYSDKLLAKDNYLMTESEYKAGFNSVDNKEWIWGHAQTNDQSNASYQFHYLDTTTKGSYYYSFNVDPYFRDLFEDGDYRKEMLFWATDPGADVESAAYVWMRNSKFRFRDIENQLGDIVLMRVAEIYLINAEAKAHLNDPDAINKLNDLKTARGAKTIHTNLSQQDLLETIWLERRKELWGEGFSLIDIIRNQQTVVRNAYPEGPIDYIYTDENGQTHTLKKKTQGHRFFNFPDKSAFCPNSKYYLYRITDSEELANKNLYKDHPKLSIYTK
# How the values were obtained:
# Assay in all cases: glycan array binding signal (z-score within array); higher = stronger binding
# Conditions in all cases: glycan notation: IUPAC condensed, linker removed
# [1] = biological target: Fuc(a1-3)[Gal3S(b1-4)]GlcNAc6S
# Summary of the method: (§1)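 The binding signal is a Z-score computed within each array. Data were drawn from 3228 arrays in the Consortium for Functional Glycomics database, restricted to those with a known protein sequence. Scores were averaged over arrays of the same protein sequence at different concentrations or buffers, and over linkers, and negative values can be taken as non-binding.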
# [2] = biological target: Fuc(a1-3)[GalNAc(b1-4)]GlcNAc
# Summary of the method: as §1
# [3] = biological target: Fuc(a1-3)[GalNAc(b1-4)]GlcNAc6S
# Summary of the method: as §1
# Fuc(a1-4)GlcNAc = biological target: Fuc(a1-4)GlcNAc
# Summary of the method: as §1
# Fuc(b1-3)GlcNAc = biological target: Fuc(b1-3)GlcNAc
# Summary of the method: as §1
# Gal(a1-2)Gal = biological target: Gal(a1-2)Gal
# Summary of the method: as §1
# Gal(a1-3)Gal = biological target: Gal(a1-3)Gal
# Summary of the method: as §1
# Gal(a1-3)Gal(b1-3)GlcNAc = biological target: Gal(a1-3)Gal(b1-3)GlcNAc
# Summary of the method: as §1
# [4] = biological target: Gal(a1-3)Gal(b1-3)GlcNAc(b1-2)Man
# Summary of the method: as §1
# [5] = biological target: Gal(a1-3)Gal(b1-3)GlcNAc(b1-2)Man(a1-3)[Gal(a1-3)Gal(b1-3)GlcNAc(b1-2)Man(a1-6)]Man(b1-4)GlcNAc(b1-4)GlcNAc
# Summary of the method: as §1
# [6] = biological target: Gal(a1-3)Gal(b1-3)GlcNAc(b1-3)GalNAc
# Summary of the method: as §1
# [7] = biological target: Gal(a1-3)Gal(b1-3)GlcNAc(b1-6)GalNAc
# Summary of the method: as §1
# [8] = biological target: Gal(a1-3)Gal(b1-3)[Fuc(a1-4)]GlcNAc(b1-2)Man(a1-3)[Gal(a1-3)Gal(b1-3)[Fuc(a1-4)]GlcNAc(b1-2)Man(a1-6)]Man(b1-4)GlcNAc(b1-4)GlcNAc
# Summary of the method: as §1
# Gal(a1-3)Gal(b1-4)Glc = biological target: Gal(a1-3)Gal(b1-4)Glc
# Summary of the method: as §1
# Gal(a1-3)Gal(b1-4)GlcNAc = biological target: Gal(a1-3)Gal(b1-4)GlcNAc
# Summary of the method: as §1
# [9] = biological target: Gal(a1-3)Gal(b1-4)GlcNAc(b1-2)Man
# Summary of the method: as §1
# [10] = biological target: Gal(a1-3)Gal(b1-4)GlcNAc(b1-2)Man(a1-3)[Gal(a1-3)Gal(b1-4)GlcNAc(b1-2)Man(a1-6)]Man(b1-4)GlcNAc(b1-4)GlcNAc
# Summary of the method: as §1
# [11] = biological target: Gal(a1-3)Gal(b1-4)GlcNAc(b1-3)GalNAc
# Summary of the method: as §1
# [12] = biological target: Gal(a1-3)Gal(b1-4)GlcNAc(b1-6)GalNAc
# Summary of the method: as §1
# [13] = biological target: Gal(a1-3)Gal(b1-4)[Fuc(a1-3)]GlcNAc
# Summary of the method: as §1
# [14] = biological target: Gal(a1-3)Gal(b1-4)[Fuc(a1-3)]GlcNAc(b1-2)Man(a1-3)[Gal(a1-3)Gal(b1-4)[Fuc(a1-3)]GlcNAc(b1-2)Man(a1-6)]Man(b1-4)GlcNAc(b1-4)GlcNAc
# Summary of the method: as §1
# Gal(a1-3)GalNAc = biological target: Gal(a1-3)GalNAc
# Summary of the method: as §1
# [15] = biological target: Gal(a1-3)[Gal(a1-4)]Gal(b1-4)GlcNAc
# Summary of the method: as §1
# [16] = biological target: Gal(a1-4)Gal(b1-3)GlcNAc(b1-2)Man(a1-3)[Gal(a1-4)Gal(b1-3)GlcNAc(b1-2)Man(a1-6)]Man(b1-4)GlcNAc(b1-4)GlcNAc
# Summary of the method: as §1
# Gal(a1-4)Gal(b1-4)Glc = biological target: Gal(a1-4)Gal(b1-4)Glc
# Summary of the method: as §1
# Gal(a1-4)Gal(b1-4)GlcNAc = biological target: Gal(a1-4)Gal(b1-4)GlcNAc
# Summary of the method: as §1
# [17] = biological target: Gal(a1-4)Gal(b1-4)GlcNAc(b1-2)Man(a1-3)[Gal(a1-4)Gal(b1-4)GlcNAc(b1-2)Man(a1-6)]Man(b1-4)GlcNAc(b1-4)GlcNAc
# Summary of the method: as §1
# [18] = biological target: Gal(a1-4)Gal(b1-4)GlcNAc(b1-3)Gal(b1-4)Glc
# Summary of the method: as §1
# Gal(a1-4)GlcNAc = biological target: Gal(a1-4)GlcNAc
# Summary of the method: as §1
# Gal(a1-6)Glc = biological target: Gal(a1-6)Glc
# Summary of the method: as §1
# Gal(b1-2)Gal = biological target: Gal(b1-2)Gal
# Summary of the method: as §1
# Gal(b1-3)Gal = biological target: Gal(b1-3)Gal
# Summary of the method: as §1
# Gal(b1-3)Gal(b1-4)GlcNAc = biological target: Gal(b1-3)Gal(b1-4)GlcNAc
# Summary of the method: as §1
# Gal(b1-3)GalNAc = biological target: Gal(b1-3)GalNAc
# Summary of the method: as §1
# [19] = biological target: Gal(b1-3)GalNAc(a1-3)[Fuc(a1-2)]Gal(b1-4)Glc
# Summary of the method: as §1
# [20] = biological target: Gal(b1-3)GalNAc(a1-3)[Fuc(a1-2)]Gal(b1-4)GlcNAc
# Summary of the method: as §1
# Gal(b1-3)GalNAc(b1-3)Gal = biological target: Gal(b1-3)GalNAc(b1-3)Gal
# Summary of the method: as §1
binder,measurement,setting,value
B1,glycan array binding signal (z-score),[1],-0.322
same,glycan array binding signal (z-score),[2],-0.117
same,glycan array binding signal (z-score),[3],-0.242
same,glycan array binding signal (z-score),Fuc(a1-4)GlcNAc,-0.389
same,glycan array binding signal (z-score),Fuc(b1-3)GlcNAc,-0.298
same,glycan array binding signal (z-score),Gal(a1-2)Gal,-0.287
same,glycan array binding signal (z-score),Gal(a1-3)Gal,0.031
same,glycan array binding signal (z-score),Gal(a1-3)Gal(b1-3)GlcNAc,1.82
same,glycan array binding signal (z-score),[4],0.781
same,glycan array binding signal (z-score),[5],0.222
same,glycan array binding signal (z-score),[6],-0.21
same,glycan array binding signal (z-score),[7],-0.28
same,glycan array binding signal (z-score),[8],0.276
same,glycan array binding signal (z-score),Gal(a1-3)Gal(b1-4)Glc,-0.194
same,glycan array binding signal (z-score),Gal(a1-3)Gal(b1-4)GlcNAc,-0.311
same,glycan array binding signal (z-score),[9],-0.258
same,glycan array binding signal (z-score),[10],0.567
same,glycan array binding signal (z-score),[11],-0.161
same,glycan array binding signal (z-score),[12],-0.35
same,glycan array binding signal (z-score),[13],-0.376
same,glycan array binding signal (z-score),[14],-0.017
same,glycan array binding signal (z-score),Gal(a1-3)GalNAc,-0.361
same,glycan array binding signal (z-score),[15],5.23
same,glycan array binding signal (z-score),[16],0.219
same,glycan array binding signal (z-score),Gal(a1-4)Gal(b1-4)Glc,-0.204
same,glycan array binding signal (z-score),Gal(a1-4)Gal(b1-4)GlcNAc,-0.328
same,glycan array binding signal (z-score),[17],-0.1
same,glycan array binding signal (z-score),[18],-0.356
same,glycan array binding signal (z-score),Gal(a1-4)GlcNAc,-0.32
same,glycan array binding signal (z-score),Gal(a1-6)Glc,-0.252
same,glycan array binding signal (z-score),Gal(b1-2)Gal,-0.362
same,glycan array binding signal (z-score),Gal(b1-3)Gal,-0.365
same,glycan array binding signal (z-score),Gal(b1-3)Gal(b1-4)GlcNAc,-0.384
same,glycan array binding signal (z-score),Gal(b1-3)GalNAc,-0.198
same,glycan array binding signal (z-score),[19],-0.39
same,glycan array binding signal (z-score),[20],-0.361
same,glycan array binding signal (z-score),Gal(b1-3)GalNAc(b1-3)Gal,-0.277
